# Laboratory results published in the supplement of paper PMC8728848.
# This is one part of the list.
# B1: Epa1-NP (Candida glabrata), Q6VBJ0 (protein)
# chain: MILNPALFLNKCVCIYTTLILLLLTNGGYATSSNDISLASKDPTTFPLGCSPDITTPKKGLSMELYSYDFRKKGSYPCWDAAYLDPNYPRTGYKSHRLLAKVDGVTGNINFYYHATKGCTPQLGHLPASYNYPKPLTMTNFTMLLYGYFRPKVTGFHTFTISADDLLFVNFGAGNAFDCCRRDSSADHFGNYQAYAIWGSKTAKDELTVHLDAGVYYPIRLFYNNREYDGALSFTFKTESNENTVSDFSEYFFSLDDTEEGCPGLISYDSSCASVKTSKIIGIDYHTETPNENLVPITKTIYHLGIPCTGTTTTPLCGSGFYDPLANKCVTINTSSTSSVTKTTSHTTSKEVSFHSSISSQKTLIPKSIPSPYGPIKSQSIPTEMETSSEISSSEYAFSDVISTPSHSPYTKKHSSLNSSSYTSTVIHSLTSYSISQGIFSTSLSEQNITSKSSTDKFSTATSMSNNITQSSIIISQFSTNNENYTTTSMHTSSDKISTETLNNSISTTTSILFSNSSTILKNNTTIISSDKDTHYHPVNPTIVCSTNKTEIICASITQPSISNSNNHWSSSVLKFNSTTVRSTLPSSAGSNETSINVPFSSSTESNTSTSSTSTSNSKMVRSTLPSSAGSNETSISVPFSSSTESNTSTSSTSTSNSKMVRSTLPSSAGSNETSINVPFSSSTESNTSTSSTSTSNSKTVRSTPFSSAGIIMTSLSQRNNKSASSYASSNSKCYNTADSCRKVHSTPSYLLTSSYTSEGVDYDCSLVSTKLKINDTNCVNNKHTTKSCLKTSVTTTIPTLEIKTARKSSSNTIGLHSYPTSSPNKSISSAPIIGYISSFKTIKTASPSYQTSDLTTITTITSLNNPGSTAVENTHESNDKSRKTSSNDISSKHSVIKETKDAVESSNKSHQTNTLKCSSIIIASSSHNSYESLGGTTLTLTLSKVYSPQNNDTLPFLEISEVNPSRTVLPESSKMMQYLTSTEERNKTARNTIATNIVSISTFHFEGEGNAIRMGYTQLLLMLIGIIVMNIGT
# Experiments:
# Assay in all cases: glycan array binding signal (z-score within array); higher = stronger binding
# Settings in all cases: glycan notation: IUPAC condensed, linker removed
# [1] = molecular target: GlcNAc(a1-4)Gal(b1-4)GalNAc
# Procedure, shortened: (§1)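 From the Consortium for Functional Glycomics database, 3228 arrays were curated, keeping only those whose protein sequence was available. Binding is given as a within-array Z-score averaged across arrays sharing a protein sequence and across linkers. Negative Z-scores can be read as non-binding.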
# [2] = molecular target: GlcNAc(a1-4)Gal(b1-4)GlcNAc
# Procedure, shortened: as §1
# [3] = molecular target: GlcNAc(a1-4)Gal(b1-4)GlcNAc(b1-3)Gal(b1-4)Glc
# Procedure, shortened: as §1
# [4] = molecular target: GlcNAc(a1-4)Gal(b1-4)GlcNAc(b1-3)Gal(b1-4)GlcNAc
# Procedure, shortened: as §1
# [5] = molecular target: GlcNAc(a1-4)Gal(b1-4)GlcNAc(b1-3)Gal(b1-4)GlcNAc(b1-3)Gal(b1-4)GlcNAc
# Procedure, shortened: as §1
# [6] = molecular target: GlcNAc(a1-4)Gal(b1-4)GlcNAc(b1-3)Gal(b1-4)[Fuc(a1-3)]GlcNAc(b1-3)Gal(b1-4)[Fuc(a1-3)]GlcNAc
# Procedure, shortened: as §1
# [7] = molecular target: GlcNAc(a1-6)Gal(b1-4)GlcNAc
# Procedure, shortened: as §1
# [8] = molecular target: GlcNAc(b1-2)Gal(b1-3)GalNAc
# Procedure, shortened: as §1
# [9] = molecular target: GlcNAc(b1-2)Gal(b1-3)GlcNAc
# Procedure, shortened: as §1
# [10] = molecular target: GlcNAc(b1-2)Man(a1-3)[GlcNAc(b1-2)Man(a1-6)]Man(b1-4)GlcNAc(b1-4)GlcNAc
# Procedure, shortened: as §1
# [11] = molecular target: GlcNAc(b1-2)Man(a1-3)[GlcNAc(b1-2)Man(a1-6)]Man(b1-4)GlcNAc(b1-4)[Fuc(a1-6)]GlcNAc
# Procedure, shortened: as §1
# [12] = molecular target: GlcNAc(b1-2)Man(a1-3)[GlcNAc(b1-4)][GlcNAc(b1-2)Man(a1-6)]Man(b1-4)GlcNAc(b1-4)GlcNAc
# Procedure, shortened: as §1
# [13] = molecular target: GlcNAc(b1-2)Man(a1-3)[GlcNAc(b1-4)][GlcNAc(b1-2)Man(a1-6)]Man(b1-4)GlcNAc(b1-4)[Fuc(a1-6)]GlcNAc
# Procedure, shortened: as §1
# [14] = molecular target: GlcNAc(b1-2)[GlcNAc(b1-4)]Man(a1-3)[GlcNAc(b1-2)Man(a1-6)]Man(b1-4)GlcNAc(b1-4)GlcNAc
# Procedure, shortened: as §1
# [15] = molecular target: GlcNAc(b1-2)[GlcNAc(b1-4)]Man(a1-3)[GlcNAc(b1-4)][GlcNAc(b1-2)Man(a1-6)]Man(b1-4)GlcNAc(b1-4)GlcNAc
# Procedure, shortened: as §1
# [16] = molecular target: GlcNAc(b1-2)[GlcNAc(b1-4)]Man(a1-3)[GlcNAc(b1-4)][GlcNAc(b1-2)[GlcNAc(b1-6)]Man(a1-6)]Man(b1-4)GlcNAc(b1-4)GlcNAc
# Procedure, shortened: as §1
# [17] = molecular target: GlcNAc(b1-2)[GlcNAc(b1-4)]Man(a1-3)[GlcNAc(b1-4)][GlcNAc(b1-2)[GlcNAc(b1-6)]Man(a1-6)]Man(b1-4)GlcNAc(b1-4)[Fuc(a1-6)]GlcNAc
# Procedure, shortened: as §1
# [18] = molecular target: GlcNAc(b1-2)[GlcNAc(b1-6)]Man(a1-6)[GlcNAc(b1-2)Man(a1-3)]Man(b1-4)GlcNAc(b1-4)GlcNAc
# Procedure, shortened: as §1
# [19] = molecular target: GlcNAc(b1-2)[GlcNAc(b1-6)]Man(a1-6)[GlcNAc(b1-2)Man(a1-3)]Man(b1-4)GlcNAc(b1-4)[Fuc(a1-6)]GlcNAc
# Procedure, shortened: as §1
# [20] = molecular target: GlcNAc(b1-2)[GlcNAc(b1-6)]Man(a1-6)[GlcNAc(b1-2)Man(a1-3)][GlcNAc(b1-4)]Man(b1-4)GlcNAc(b1-4)GlcNAc
# Procedure, shortened: as §1
# [21] = molecular target: GlcNAc(b1-2)[GlcNAc(b1-6)]Man(a1-6)[GlcNAc(b1-4)][GlcNAc(b1-2)Man(a1-3)]Man(b1-4)GlcNAc(b1-4)GlcNAc
# Procedure, shortened: as §1
# GlcNAc(b1-3)Fuc = molecular target: GlcNAc(b1-3)Fuc
# Procedure, shortened: as §1
# GlcNAc(b1-3)Gal = molecular target: GlcNAc(b1-3)Gal
# Procedure, shortened: as §1
# [22] = molecular target: GlcNAc(b1-3)Gal(b1-3)GalNAc
# Procedure, shortened: as §1
# GlcNAc(b1-3)Gal(b1-4)Glc = molecular target: GlcNAc(b1-3)Gal(b1-4)Glc
# Procedure, shortened: as §1
# [23] = molecular target: GlcNAc(b1-3)Gal(b1-4)GlcNAc
# Procedure, shortened: as §1
# [24] = molecular target: GlcNAc(b1-3)Gal(b1-4)GlcNAc(b1-2)Man(a1-3)[GlcNAc(b1-3)Gal(b1-4)GlcNAc(b1-2)Man(a1-6)]Man(b1-4)GlcNAc(b1-4)GlcNAc
# Procedure, shortened: as §1
# [25] = molecular target: GlcNAc(b1-3)Gal(b1-4)GlcNAc(b1-2)Man(a1-3)[GlcNAc(b1-3)Gal(b1-4)GlcNAc(b1-2)Man(a1-6)]Man(b1-4)GlcNAc(b1-4)[Fuc(a1-6)]GlcNAc
# Procedure, shortened: as §1
# [26] = molecular target: GlcNAc(b1-3)Gal(b1-4)GlcNAc(b1-2)[GlcNAc(b1-3)Gal(b1-4)GlcNAc(b1-6)]Man(a1-6)[GlcNAc(b1-3)Gal(b1-4)GlcNAc(b1-2)Man(a1-3)]Man(b1-4)GlcNAc(b1-4)GlcNAc
# Procedure, shortened: as §1
# [27] = molecular target: GlcNAc(b1-3)Gal(b1-4)GlcNAc(b1-3)Gal(b1-4)GlcNAc
# Procedure, shortened: as §1
binder,measurement,setting,value
B1,glycan array binding signal (z-score),[1],-0.302
same,glycan array binding signal (z-score),[2],-0.244
same,glycan array binding signal (z-score),[3],-0.255
same,glycan array binding signal (z-score),[4],-0.217
same,glycan array binding signal (z-score),[5],-0.291
same,glycan array binding signal (z-score),[6],-0.177
same,glycan array binding signal (z-score),[7],1.83
same,glycan array binding signal (z-score),[8],-0.279
same,glycan array binding signal (z-score),[9],-0.549
same,glycan array binding signal (z-score),[10],-0.375
same,glycan array binding signal (z-score),[11],-0.278
same,glycan array binding signal (z-score),[12],-0.294
same,glycan array binding signal (z-score),[13],-0.289
same,glycan array binding signal (z-score),[14],-0.232
same,glycan array binding signal (z-score),[15],-0.281
same,glycan array binding signal (z-score),[16],-0.303
same,glycan array binding signal (z-score),[17],-0.285
same,glycan array binding signal (z-score),[18],-0.303
same,glycan array binding signal (z-score),[19],-0.277
same,glycan array binding signal (z-score),[20],-0.3
same,glycan array binding signal (z-score),[21],-0.289
same,glycan array binding signal (z-score),GlcNAc(b1-3)Fuc,-0.284
same,glycan array binding signal (z-score),GlcNAc(b1-3)Gal,-0.331
same,glycan array binding signal (z-score),[22],-0.284
same,glycan array binding signal (z-score),GlcNAc(b1-3)Gal(b1-4)Glc,-0.315
same,glycan array binding signal (z-score),[23],-0.296
same,glycan array binding signal (z-score),[24],-0.287
same,glycan array binding signal (z-score),[25],-0.277
same,glycan array binding signal (z-score),[26],-0.245
same,glycan array binding signal (z-score),[27],-0.165
